# Test results reported in the supplement of paper PMC3334620.
# In all, about 33,000 sequences were measured (“E-score (-0.5 to 0.5)”: median about -0.011, highest 2% from about 0.28 on). The list shows a part of the results.
# Biological target: T1, Gcr1 (UniProt P07261)
# T1 sequence: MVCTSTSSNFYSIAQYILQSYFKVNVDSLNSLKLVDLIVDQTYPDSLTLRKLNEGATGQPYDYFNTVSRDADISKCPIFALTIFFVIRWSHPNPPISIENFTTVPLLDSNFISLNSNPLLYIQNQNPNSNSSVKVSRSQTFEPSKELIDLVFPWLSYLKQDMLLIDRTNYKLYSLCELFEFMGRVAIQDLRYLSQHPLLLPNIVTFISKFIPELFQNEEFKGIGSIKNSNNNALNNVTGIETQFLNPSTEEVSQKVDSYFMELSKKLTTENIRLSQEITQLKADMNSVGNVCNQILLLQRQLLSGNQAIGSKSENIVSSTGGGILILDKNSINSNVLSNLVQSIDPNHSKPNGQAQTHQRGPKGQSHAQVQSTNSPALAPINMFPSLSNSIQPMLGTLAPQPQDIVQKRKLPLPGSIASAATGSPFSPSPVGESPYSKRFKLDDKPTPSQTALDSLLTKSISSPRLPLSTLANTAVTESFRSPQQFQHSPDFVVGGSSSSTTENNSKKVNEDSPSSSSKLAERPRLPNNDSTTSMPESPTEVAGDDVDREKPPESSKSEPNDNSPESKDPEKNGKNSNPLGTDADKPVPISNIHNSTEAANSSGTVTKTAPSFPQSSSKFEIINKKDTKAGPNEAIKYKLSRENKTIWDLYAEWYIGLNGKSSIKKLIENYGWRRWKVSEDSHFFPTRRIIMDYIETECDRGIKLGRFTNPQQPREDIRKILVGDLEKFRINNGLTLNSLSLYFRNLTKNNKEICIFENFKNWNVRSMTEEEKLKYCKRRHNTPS
# Experiment: PBM E-score (8-mer binding enrichment) (E-score (-0.5 to 0.5)); higher = stronger / more preferred TF binding; most listed sequences are background and not binding sites
# Details: protein concentration: 100 nM; construct: GST-full length
# Procedure: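 Universal 'all 10-mer' protein binding microarrays (Agilent AMADID 015681) probed with GST-tagged S. cerevisiae TFs (full-length or DBD) made by in vitro transcription/translation (PURExpress), about 100-200 nM. Bound TF was detected with fluorescent anti-GST. Each ungapped 8-mer (which stands for itself and its reverse complement) is scored by the PBM enrichment score (E-score), a modified Wilcoxon-Mann-Whitney statistic from -0.5 to +0.5, computed with the Universal PBM Analysis Suite. Scale: above 0.35 generally sequence-specific binding.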
row,Sequence,PBM E-score
1,ACTATGTG,0.00825
2,ACCTGACA,0.0154
3,GGGTGTAC,-0.138
4,AGTACATG,-0.117
5,GTAGTCGA,-0.0515
6,GATAAAGC,-0.135
7,AAGCATGT,-0.156
8,AAGGGAGC,0.156
9,ACCTGAAA,0.244
10,ACTTCCGG,0.229
11,CAGCGGTC,-0.152
12,CCGGATCC,0.279
13,CCCAGTCA,-0.127
14,CTAGTCGA,0.0544
15,ACCAGACA,-0.123
16,GACCATGA,-0.254
17,TGCAGACA,0.0275
18,AAGGCTGC,0.302
19,CTTTCAGA,-0.0432
20,GTCCAAAA,0.21
21,AATCGTGC,0.0604
22,CAACGAGC,-0.238
23,AAAAAGTC,-0.0676
24,AACGACAT,0.097
25,CTGAACCA,-0.0507

row,Sequence,PBM E-score
1,TGAATCCA,0.169
2,AGTGAGAC,-0.352
3,TCATGGGA,0.0378
4,CTAGGCGC,0.178
5,GAAGTAAA,-0.0223
6,AATGCCTA,0.13
7,CGACGGCG,-0.289
8,CGCCAATA,0.144
9,ACTTACCT,-0.188
10,CAGCTGAG,-0.0346
11,ACAGCAGC,0.288
12,CACTCCAG,0.0875
13,AACTTGAT,0.195
14,GGACGTAC,-0.249
15,AGTAGTAT,0.143
16,CTATACCA,-0.0503
17,CGAGTCAG,-0.184
18,CAAGTGAC,0.0147
19,CTGAGGTC,-0.0116
20,CTGGGTTA,-0.189
21,GAGGTTCC,0.269
22,CCTCTTGC,-0.0705
23,GAACGCCA,0.159
24,ACCCGGTA,0.0566
25,TGCTTGAA,0.201

row,Sequence,PBM E-score
1,ACTGACTC,-0.199
2,GATCCATA,0.0394
3,AAAGGCCA,-0.245
4,AGCAACGC,0.0651
5,ACATTACA,0.178
6,ACCAGTAA,0.266
7,ATACGACA,0.0695
8,ATAAGAAT,0.123
9,AATTAACC,0.0095
10,AAAGCTAT,-0.188
11,AATGCACC,0.059
12,CATAGAGC,-0.0186
13,CTGGAAGC,0.45
14,CTCACCTC,-0.0783
15,CCAGGGGC,-0.12
16,CTCCCCCA,-0.139
17,GCGAACAC,-0.0366
18,TAACTCAA,0.00679
19,CCTTGCAG,-0.303
20,ATCTGCTG,-0.168
21,ATATGCGA,0.0152
22,GGCCTCAC,-0.109
23,AAACTGTG,0.0668
24,GATGACAA,-0.0664
25,AGGCGCTC,-0.0859

row,Sequence,PBM E-score
1,CATTGTGA,-0.0738
2,CCTCGGGC,0.0253
3,CGCGAGTA,-0.0789
4,CCACATTA,0.212
5,ACGGAGGA,-0.198
6,AACGACGG,-0.118
7,CCCGCCCA,0.241
8,ACCCCGCC,0.0633
9,ACCAACAG,0.0747
10,CAGCTCAC,-0.114
11,CTTTGTCC,-0.0282
12,CAATCTGA,0.00236
13,ACCAGGAA,0.0492
14,ACACCCCT,0.0254
15,ACTAGCCT,-0.176
16,AACCTGGT,0.0343
17,ACCTTCGT,-0.0684
18,CTCTTTCA,-0.126
19,CGTCAGAA,-0.0764
20,GAGTCGGC,-0.0641
21,AGGGTGTG,-0.0625
22,GGCAGACC,-0.296
23,GCGTACCA,-0.136
24,AGTGGCGC,0.267
25,GGCTAGGA,-0.112

row,Sequence,PBM E-score
1,GTTCGGAA,0.0493
2,TCAGCACA,-0.113
3,ACGGATGA,-0.12
4,ATCCAGAT,0.196
5,ACGTTAGT,-0.123
6,CCCCTTCA,-0.13
7,CTCCATGC,-0.192
8,AATCCGCC,-0.0285
9,AAATGCTT,-0.208
10,CCGATCGG,0.107
11,GGCAGCAC,-0.0566
12,CTTGGAAC,0.0986
13,CACAACTG,0.127
14,AAATAGCC,-0.0925
15,CAGATCCG,-0.148
16,CAGCACCA,0.277
17,TAGGCTCA,-0.262
18,CGGAGCGC,0.099
19,GTTCTGAA,-0.14
20,GAACAAGA,0.133
21,GCGGCGCA,-0.064
22,ATTGGTGC,0.141
23,CTATACAA,0.0862
24,TAATAATA,0.147
25,CGATGTTC,-0.0449

row,Sequence,PBM E-score
1,GGTCCGGA,-0.101
2,CCAGAACA,-0.0128
3,AAAACTAG,0.0364
4,GCAAAGCC,-0.173
5,ATCGTTTC,-0.0918
6,GAGGAGCA,-0.19
7,TCTTGACA,-0.113
8,ACTAAGTG,-0.0454
9,CGGTCTAA,-0.123
10,CGGGCGTA,-0.097
11,CCTGCACC,-0.0248
12,GAAGTATA,-0.189
13,GAGCATGA,-0.0995
14,GCGTTCTA,0.0324
15,AAAGATGG,0.0718
16,CATTATCC,0.0765
17,CACGGTAC,-0.156
18,GTAGCGAA,-0.0593
19,CAATTATC,0.109
20,CAGCGCCA,0.0174
21,CGACACCA,0.0926
22,CGCGTAAG,-0.185
23,ATTCGCCG,0.11
24,ATATCTAG,0.123
25,CTTCGTTA,-0.0392

row,Sequence,PBM E-score
1,CAGGTTAG,-0.0416
2,ATAAGTAT,0.0878
3,CCGCTCCC,0.0618
4,AGACTCAC,-0.173
5,ATTGAGGG,-0.0172
6,TCTTTAAA,-0.0381
7,AGGGTTTA,-0.142
8,GATGCCAA,0.351
9,CGTGCTCA,0.0706
10,CCACGACG,-0.243
11,GCGTACGA,-0.042
12,TAATAGGA,0.278
13,CGTCTAGA,-0.0439
14,ACTTTATG,-0.175
15,CTCCCACC,0.00127
16,GAGGCCGA,0.0579
17,CGTCAGGC,-0.131
18,CCTATCGA,0.122
19,AATTGTGC,-0.137
20,CGGCCGCC,0.11
21,ACATGTTC,-0.0802
22,GCCAGTAA,0.254
23,ACAATAGA,0.0995
24,ATTGGGGG,0.092
25,AGCCGTAG,-0.154

row,Sequence,PBM E-score
1,CCATTGTC,-0.121
2,AAGTGCGG,0.0932
3,AAACATAG,-0.0739
4,ACTTCTAG,-0.0229
5,GGCCGGCA,-0.00082
6,TGACCACA,-0.113
7,CGATAGAG,-0.0218
8,CGCACTCA,-0.258
9,ATTCCAAA,0.307
10,GGCGCAGA,0.0458
11,CTACAACC,0.0248
12,ACATATGG,0.109
13,CTCGCTTC,0.0436
14,ACGGTAGC,0.00681
15,GGCCGGAA,-0.00514
16,CACAATAG,0.0887
17,TAGCATAA,-0.106
18,CAAACGTG,0.0744
19,AACGTCGA,0.0497
20,AAATCTTG,0.0316
21,TAGGACTA,-0.152
22,CAGCTCTC,-0.09
23,CAGCAGTA,-0.21
24,GCATTACC,-0.107
25,GACCGTAA,-0.0341

row,Sequence,PBM E-score
1,AGACGGAC,-0.22
2,AAGACGGG,0.16
3,AATTACGT,-0.235
4,ATGTGATA,-0.0572
5,ACGAGCGC,-0.0852
6,AATTTGGC,0.0642
7,GAACGCCC,-0.0877
8,ACTGGAAG,0.463
9,GCCTAAGC,-0.167
10,ATCCCCCA,-0.0404
11,ATGCTTGC,-0.302
12,ACATTACG,0.091
13,CCCCACAA,0.305
14,CGCCTCTA,0.228
15,CCGACAGA,-0.0124
16,CGAAGCTA,0.198
17,GCAACAAA,0.00754
18,CTTTGGGA,0.13
19,AGGATCCT,0.301
